Experimental findings from patent publication US4450269A, “Mono-5-substituted-3-chloro-4H-1,2,6-thiadiazin-4-one antifungal agents” (FMC Corporation, priority 1980, dated 1984) are described below.

One data set relates to Uromyces phaseoli. More on the design: key: b: Slight Phytotoxicity. As to conditions: in vivo. On the procedure: The foliage of a tomato plant in the four leaf stage and a pinto bean in the primary leaf stage was sprayed with the test chemicals at a concentrations of 150 ppm on a weight/volume basis, and the plant allowed to dry overnight.
Sporangia of Phytophthora infestans (late blight fungus) were harvested from cultures grown on lima bean agar for 10 to 14 days. A water suspension of sporangia (2×10^5 sporangia/ml) was incubated at 12° C. for two hours in order to provide a zoospore suspension. Spores of Uromyces phaseoli (bean rust fungus) were collected from diseased plants and a 2% spore powder mixture prepared using ABB Pyrax talc as a diluent.
The tomato plants were inoculated in a spray hood with the zoospore suspension, then immediately incubated in a humidity chamber at 100% relative humidity at 18°-20° C. for four to five days. The bean plants were inoculated by dusting the spore powder onto the leaves. This was accomplished by placing the spore powder in a cheesecloth bag and shaking the bag over the leaves. The inoculated plants were placed in the humidity chamber at 100% relative humidity and 21° C. for 24 hours and then placed in the greenhouse for four to six days until disease symptoms developed.
The percent disease control was then determined by comparing the disease incidence in treated plants and untreated check plants.

A further data set has as its system Erysiphe polygoni. More on the design: key to Dead Plant, curative, bean powdery mildew: DP: Dead Plant; key to Phytotoxicity, curative, bean powdery mildew: b: Slight Phytotoxicity. As to conditions: in vivo. On the procedure: In the curative tests the plants were inoculated with the appropriate pathogen 24 hours before chemical treatment. The following host-parasite combinations were used: | Erysiphe polygoni DC Spores of bean rust and bean powdery mildew were obtained from diseased plants. […] Beans (c.v. `Pinto`) were inoculated with rust as described in Example IV-A. Beans (c.v. `Bountiful`) at primary leaf stage were inoculated with powdery mildew by shaking diseased leaves over the test plants, thereby creating a spore deposit on leaves of the test plants. […] All of the plants except those inoculated with bean powdery mildew were incubated in the moisture chamber (21° C.) for 24 hours. The bean powdery mildew inoculated plants were incubated in the greenhouse. The test chemical was sprayed on the foliage of the plants at 150 ppm 24 hours after inoculation. The bean and rice plants were removed from the moisture chamber and allowed to dry before chemical treatment. After treatment the plants were incubated in the greenhouse for 6-10 days. The sugar beets were sprayed while still wet, after which they were immediately returned to the moisture chamber for two days and then to the greenhouse for 10-14 days.

With `O=c1c(Cl)nsnc1Oc1cccc(Cl)c1` [Compound 13, 3-chloro-5-(3-chlorophenoxy)-4H--1,2,6-thiadiazin-4-one], in the data set on Uromyces phaseoli, the “Phytotoxicity, foliar, bean rust” value is listed as “b”. As to `Cc1cc(Oc2nsnc(Cl)c2=O)cc(C)c1Br` [Compound 60, 3-[(4-bromo-3,5-dimethyl)-phenoxy]-5-chloro-4H--1,2,6-thiadiazin-4-one], the “Dead Plant, curative, bean powdery mildew” value (shortened to “Dead Plant, curative”) in the data set with Erysiphe polygoni is given as “DP”. For `O=c1c(Cl)nsnc1Oc1cccc(Cl)c1Cl` [Compound 19, 3-chloro-5-(2,3-dichlorophenoxy)-4H--1,2,6-thiadiazin-4-one], in the data set on Erysiphe polygoni, the “Dead Plant, curative” value is listed as “DP”. As for `CC(=O)Nc1ccc(Oc2nsnc(Cl)c2=O)cc1` [Compound 8, 5-(4-acetylaminophenoxy)-3-chloro-4H--1,2,6-thiadiazin-4-one], the “Phytotoxicity, foliar, bean rust” value in the data set on Uromyces phaseoli is given as “b”. Regarding `Cc1cc(Oc2nsnc(Cl)c2=O)cc(C)c1Cl` [Compound 59, 3-chloro-5-[(4-chloro-3,5-dimethyl)phenoxy]-4H--1,2,6-thiadiazin-4-one], the “Dead Plant, curative” value in the data set on Erysiphe polygoni is “DP”.

For `O=c1c(Cl)nsnc1Oc1cc(Cl)cc(Cl)c1` [Compound 20, 3-chloro-5-(3,5-dichlorophenoxy)-4H--1,2,6-thiadiazin-4-one], the “Phytotoxicity, curative, bean powdery mildew” value in the data set with Erysiphe polygoni is reported as “b”.

Regarding `Cc1cc(Cl)ccc1Oc1nsnc(Cl)c1=O` [Compound 55, 3-chloro-5-(4-chloro-2-methylphenoxy)-4H--1,2,6-thiadiazin-4-one], the “Phytotoxicity, foliar, bean rust” value in the data set with Uromyces phaseoli is on record as “b”.
